# This is one part of the list. Many values rest on one well or one pass, so single values are uncertain.
# How the values were obtained:
# Test in all cases: cell count relative to DMSO control; melanoma cells; higher = more viable cells
# Settings in all cases: library dose: standard library concentration; 72 h
# [1] = system: G361
# [2] = system: IPC-298
# [3] = system: IST-MEL1
# [4] = system: LB2518-MEL
# [5] = system: LOXIMVI
# [6] = system: MEL-HO
# [7] = system: MZ2-MEL
# [8] = system: MeWo
# [9] = system: RPMI7951
# [10] = system: RVH-421
# [11] = system: SkMel28
# [12] = system: SkMel2
# [13] = system: SkMel30
# [14] = system: SkMel5
# [15] = system: UACC257
# [16] = system: UACC62
# [17] = system: WM115
# [18] = system: WM1716
# [19] = system: WM3526
# [20] = system: WM1745
# 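Further: cells treated in 1,536-well plates, then fixed and DAPI-stained, with nuclei counted from automated high-throughput microscope images.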
SMILES,cell count [1] [%],cell count [2] [%],cell count [3] [%],cell count [4] [%],cell count [5] [%],cell count [6] [%],cell count [7] [%],cell count [8] [%],cell count [9] [%],cell count [10] [%],cell count [11] [%],cell count [12] [%],cell count [13] [%],cell count [14] [%],cell count [15] [%],cell count [16] [%],cell count [17] [%],cell count [18] [%],cell count [19] [%],cell count [20] [%]
"CO[C@H]1C[C@@H]2CC[C@@H](C)[C@@](O)(O2)C(=O)C(=O)N2CCCC[C@H]2C(=O)O[C@H]([C@H](C)C[C@@H]2CC[C@@H](OCCO)[C@H](OC)C2)CC(=O)[C@H](C)/C=C(\C)[C@@H](O)[C@@H](OC)C(=O)[C@H](C)C[C@H](C)/C=C/C=C/C=C/1C [everolimus] + COc1cc(N2CCC(N3CCN(C)CC3)CC2)ccc1Nc1ncc(Cl)c(Nc2ccccc2S(=O)(=O)C(C)C)n1 [NVP-TAE684] (first compound 0.1 µM, partner dose 0.4 µM)",51.1,53.2,86.3,61.5,89.6,57.7,70.9,43.7,68.7,89.9,34.1,45.7,71.9,44.3,78.5,66.7,60.6,67.7,48.1,
"Nc1ccn([C@@H]2O[C@H](CO)[C@@H](O)C2(F)F)c(=O)n1 [gemcitabine] + C#Cc1cccc(Nc2ncnc3cc(OCCOC)c(OCCOC)cc23)c1 [erlotinib] (first compound 0.002 µM, partner dose 4 µM)",43.1,29.6,43.6,,64.1,46.7,,42.8,58.3,76.4,80.4,86.3,82.2,51.7,99.2,74.2,73.4,58.8,70.6,53.2
"Nc1ccn([C@@H]2O[C@H](CO)[C@@H](O)C2(F)F)c(=O)n1 [gemcitabine] + Cn1cc(/C=C2\C(=O)Nc3cccnc32)c2ccccc21 [GW441756] (first compound 0.002 µM, partner dose 2 µM)",114,55.6,63.9,,101,81.5,,72.9,99.7,85.1,102,125,116,82.7,79.9,77.9,83,85.7,111,
"CC(=O)c1c(C)c2cnc(Nc3ccc(N4CCNCC4)cn3)nc2n(C2CCCC2)c1=O [palbociclib] + COc1ccc(COc2ccc(Cc3cnc(N)nc3N)cc2OC)cc1 [GW2580] (first compound 0.2 µM, partner dose 5 µM)",60.3,72.9,72.8,,86.1,91.4,,58.7,66.2,68.8,38.4,,79.9,46.3,78.1,80.9,42.1,38.3,53.9,
"Nc1nc(F)nc2c1ncn2[C@@H]1O[C@H](CO)[C@@H](O)[C@@H]1O [fludarabine] + Oc1nc(-c2ccc(C(F)(F)F)cc2)nc2c1CSCC2 [XAV939] (first compound 1 µM, partner dose 10 µM)",85.2,67.3,83.2,,240,75.7,,118,46.2,93.8,5.77,2.47,26.6,39.8,24.3,63.8,96.1,60.4,37,
"Nc1ccn([C@@H]2O[C@H](CO)[C@@H](O)C2(F)F)c(=O)n1 [gemcitabine] + O=C(Nc1ccccc1)c1cc([N+](=O)[O-])ccc1Cl [GW9662] (first compound 0.002 µM, partner dose 10 µM)",42.9,70.6,43.5,,66.9,60.6,,40.1,43.7,72.9,54.8,,90.4,65.5,77.4,62.3,62.7,73.5,91.2,
"Nc1ccn([C@@H]2O[C@H](CO)[C@@H](O)C2(F)F)c(=O)n1 [gemcitabine] + CCc1ccc(CCOc2ccc(CC3SC(=O)NC3=O)cc2)nc1 [pioglitazone] (first compound 0.002 µM, partner dose 10 µM)",51.2,49.5,45.4,72.4,155,56,83,43.5,83.6,56.6,67,90.2,96.8,72,91,93.4,77.8,62,102,
"Nc1nc(F)nc2c1ncn2[C@@H]1O[C@H](CO)[C@@H](O)[C@@H]1O [fludarabine] + Cn1nnc2c(C(N)=O)ncn2c1=O [temozolomide] (first compound 1 µM, partner dose 10 µM)",81.5,81.2,67.7,,97.3,71.4,,104,82.4,105,2.39,1.7,15.5,23.5,39,54,92.3,57.9,26,95.7
"CC(=O)c1c(C)c2cnc(Nc3ccc(N4CCNCC4)cn3)nc2n(C2CCCC2)c1=O [palbociclib] + O=S(=O)(c1ccccc1)N(CC(F)(F)F)c1ccc(C(O)(C(F)(F)F)C(F)(F)F)cc1 [T0901317] (first compound 0.2 µM, partner dose 7 µM)",83.2,79.1,83.6,,84.4,82,,58.4,63.6,53.1,65.2,72.2,88.1,57.5,79.4,63.5,60.6,39.9,65.9,
"CC(=O)c1c(C)c2cnc(Nc3ccc(N4CCNCC4)cn3)nc2n(C2CCCC2)c1=O [palbociclib] + COc1cc(Nc2ncc(F)c(Nc3ccc4c(n3)NC(=O)C(C)(C)O4)n2)cc(OC)c1OC [Tamatinib] (first compound 0.2 µM, partner dose 2 µM)",53.2,72.4,52.6,,39.3,55.4,,41.1,30,66,48.9,,70.2,35.2,67.8,64.8,41.7,41.7,47.8,36.7
"Nc1ncn([C@H]2C[C@H](O)[C@@H](CO)O2)c(=O)n1 [decitabine] + O=C(O)C(=O)Nc1sc2c(c1C(=O)O)CCNC2 [TCS401] (first compound 0.5 µM, partner dose 8.33333 µM)",95.6,65.3,80.7,,117,78.4,,77,70.2,80.3,90.1,,110,70.6,91.4,94.1,75,68,97.1,
"Nc1ccn([C@@H]2O[C@H](CO)[C@@H](O)C2(F)F)c(=O)n1 [gemcitabine] + c1cc(-c2cnn3cc(-c4ccc(OCCN5CCCCC5)cc4)cnc23)ccn1 [Dorsomorphin] (first compound 0.002 µM, partner dose 2 µM)",45.6,55.4,50.6,64,84.5,59.3,69.8,35.3,53.6,85.1,95.7,108,76.7,77.1,79.3,66.6,69,69.3,98.1,
"Nc1ncn([C@H]2C[C@H](O)[C@@H](CO)O2)c(=O)n1 [decitabine] + Cn1cc(/C=C2\C(=O)Nc3cccnc32)c2ccccc21 [GW441756] (first compound 0.5 µM, partner dose 2 µM)",68,53.1,73.8,67,106,71.4,64.5,74.1,97.4,136,81.9,99.6,93.5,72.9,87.8,56.9,82.7,73.9,93,
"CO[C@H]1C[C@@H]2CC[C@@H](C)[C@@](O)(O2)C(=O)C(=O)N2CCCC[C@H]2C(=O)O[C@H]([C@H](C)C[C@@H]2CC[C@@H](OCCO)[C@H](OC)C2)CC(=O)[C@H](C)/C=C(\C)[C@@H](O)[C@@H](OC)C(=O)[C@H](C)C[C@H](C)/C=C/C=C/C=C/1C [everolimus] + OCCn1cc(-c2cnc3nnn(Cc4ccc5ncccc5c4)c3n2)cn1 [PF04217903] (first compound 0.1 µM, partner dose 5 µM)",54.1,78.7,77.3,,69.3,68.2,,62.3,71.4,83.1,45.2,65.8,76.9,56.4,79.5,79.8,63.9,62.6,78.5,73.9
"Nc1nc(F)nc2c1ncn2[C@@H]1O[C@H](CO)[C@@H](O)[C@@H]1O [fludarabine] + O=C(O)C(=O)Nc1sc2c(c1C(=O)O)CCNC2 [TCS401] (first compound 1 µM, partner dose 8.33333 µM)",102,84.5,92.2,93.1,51.8,81.7,123,91.3,75.3,100,5.32,2.37,20.1,44.3,44.6,111,90.7,107,25.7,
"CC(=O)O[C@@]12CO[C@@H]1C[C@H](O)[C@@]1(C)C(=O)[C@H](O)C3=C(C)[C@@H](OC(=O)[C@H](O)[C@@H](NC(=O)OC(C)(C)C)c4ccccc4)C[C@@](O)([C@@H](OC(=O)c4ccccc4)[C@H]21)C3(C)C [Docetaxel] + Cc1cc([N+](=O)[O-])ccc1NS(=O)(=O)c1cc(Cl)ccc1Cl [FH535] (first compound 0.0005 µM, partner dose 5 µM)",17.4,41.6,43.6,,54.4,41.5,,31.5,20.3,50,17.7,23.1,52.5,41.3,63.5,68,30.1,31.7,45.7,
"Nc1nc(F)nc2c1ncn2[C@@H]1O[C@H](CO)[C@@H](O)[C@@H]1O [fludarabine] + O=S(=O)(c1ccccc1)N(CC(F)(F)F)c1ccc(C(O)(C(F)(F)F)C(F)(F)F)cc1 [T0901317] (first compound 1 µM, partner dose 7 µM)",77.1,75.3,77.3,,95.3,86.2,,81.9,62.7,112,4.28,,28.4,18.7,45.9,66.7,79.7,83,37,

# Reference: the supplement of paper PMC4604168 (melanoma cell lines)
